Where “and” joins values, the source holds several entries; their conditions need not be identical. Equal entries are not always repeated. The campaign covered roughly 400,000 compounds. About 2,200 (0.55%) were called active. The inconclusive results got no clear call from the source; some entries with a clear call stand among them for comparison. Calls follow the shape of the dose curve; as a rule, active = well fitted inhibition curve with a large enough effect; inconclusive = small, poorly fitted or top-dose-only effect, or another doubt; inactive = no such curve, though single readings can be large or run the other way. A potency beside an inconclusive call is a rough fit, not a confirmed value.
target: DNA polymerase kappa (Homo sapiens) (UniProt Q9UBT6); experiment: qHTS for Inhibitors of Polymerase Kappa; details: purified Pol kappa, fluorescent DNA synthesis assay, 10 min; series mostly up to 107 µM
UniProt Q9UBT6, sequence (Q9UBT6 whole entry, looked up): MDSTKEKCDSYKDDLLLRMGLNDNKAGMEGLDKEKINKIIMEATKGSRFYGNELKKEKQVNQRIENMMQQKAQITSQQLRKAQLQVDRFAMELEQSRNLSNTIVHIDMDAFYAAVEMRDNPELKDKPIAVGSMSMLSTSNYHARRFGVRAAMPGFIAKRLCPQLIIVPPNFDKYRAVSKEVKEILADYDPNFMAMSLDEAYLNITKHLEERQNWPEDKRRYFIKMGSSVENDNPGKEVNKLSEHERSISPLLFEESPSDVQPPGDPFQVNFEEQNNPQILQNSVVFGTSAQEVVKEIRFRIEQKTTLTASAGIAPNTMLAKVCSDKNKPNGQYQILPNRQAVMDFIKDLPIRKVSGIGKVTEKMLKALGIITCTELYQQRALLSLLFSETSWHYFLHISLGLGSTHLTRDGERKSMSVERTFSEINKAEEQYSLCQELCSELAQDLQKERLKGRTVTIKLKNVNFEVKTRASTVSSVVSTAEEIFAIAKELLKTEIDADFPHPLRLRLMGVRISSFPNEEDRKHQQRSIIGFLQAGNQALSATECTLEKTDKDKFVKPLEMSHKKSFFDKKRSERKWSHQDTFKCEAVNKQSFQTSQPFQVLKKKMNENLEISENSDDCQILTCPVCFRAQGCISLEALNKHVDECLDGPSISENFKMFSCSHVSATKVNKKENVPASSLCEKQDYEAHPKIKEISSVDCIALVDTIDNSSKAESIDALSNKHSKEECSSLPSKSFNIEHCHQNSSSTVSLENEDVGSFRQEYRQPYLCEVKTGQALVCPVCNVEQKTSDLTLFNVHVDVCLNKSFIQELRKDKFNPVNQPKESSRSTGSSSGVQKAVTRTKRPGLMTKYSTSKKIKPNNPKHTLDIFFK
Method in brief: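 Fluorescent qHTS in 1536-well format: enzyme (10 nM) and compound sat 15 min at room temperature before 50 nM substrate (final) was added. Signal taken at 0 and 10 min; no-enzyme buffer wells were negative controls.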
% is scaled to controls: 0 for no effect and ±100 for the full control effect; potency is read from the fitted curve at half-maximal effect; tags tell the direction and shape of the fitted curve.

Question: CCCc1nc2oc3cc(OC)ccc3c(=O)c2c(=O)n1Cc1ccco1 was tested. Which Potency did it give?
Answer: The Potency was “inactive”.

Question: With CCOC(=O)c1cc(S(=O)(=O)NCc2cccc(Cl)c2)[nH]n1 as the compound, how does the Potency read?
Answer: The Potency was “inactive”.

Question: Which Potency does the source give for CN(Cc1ccco1)c1ccnc(-c2cccnc2)n1 here?
Answer: Its Potency is active: 25.1 µM.

Question: With COC(=O)c1cc(Cl)ccc1NC(=O)CSc1ncc(S(=O)(=O)c2ccc(Br)cc2)c(=O)[nH]1 as the compound, how does the Potency read?
Answer: The Potency was inconclusive: 89.1 µM [inhibitor, single point].

Question: Which Potency does the source give for CCOC(=O)C1=C(CSc2nc(-c3ccccc3)ccc2C#N)OC(N)=C(C#N)C1c1cccnc1 (centres undefined) here?
Answer: The Potency was inconclusive: 89.1 µM [inhibitor, partial curve, poor fit].

Question: Which Potency does the source give for O=C(Nc1ccc2oc(-c3ccc4ccccc4c3)nc2c1)c1ccc(Cl)c(Cl)c1 here?
Answer: Its Potency is inconclusive: 100 µM [inhibitor, partial curve, poor fit].

Question: Cc1oc(C(=O)O)cc1CSCc1cc(C(=O)O)c(C)o1 was tested. Which Potency did it give?
Answer: The Potency was inconclusive: 50.1 µM [inhibitor, partial curve, poor fit].

Question: With COc1cc(OC)c(OC)cc1/C=C1\SC(N2CCCCC2)=NC1=O as the compound, how does the Potency read?
Answer: The Potency was inconclusive: 89.1 µM [inhibitor, partial curve, poor fit].

Question: How did the Potency turn out when CCOC(=O)C1=C(C)N(C)C(=O)NC1c1cc2c(cc1[N+](=O)[O-])OCO2 (centres undefined) was run?
Answer: Its Potency is inconclusive: 89.1 µM [inhibitor, single point].

Question: For O=C(CSc1nccc(=O)[nH]1)N1N=C2/C(=C/c3ccco3)CCCC2C1c1ccco1 (centres undefined), which Potency is on record?
Answer: Its Potency is inconclusive: 89.1 µM [inhibitor, single point].

Question: For CCOC(=O)c1c(NS(=O)(=O)c2ccc(Br)cc2)sc2c1CCC2, which Potency is on record?
Answer: Its Potency is active: 79.4 µM.

Question: Which Potency does the source give for C=CCn1c(C)cc(C2=NNC(=NC(C)(C)C)SC2)c1C here?
Answer: Its Potency is inconclusive: 89.1 µM [inhibitor, partial curve, poor fit].

Question: For CC(=O)Oc1ccc2oc3c(c2c1)C(=O)CCC3, which Potency is on record?
Answer: The Potency was inconclusive: 89.1 µM [inhibitor, partial curve, poor fit].

Question: For Cc1cc(/C=N/n2c(COc3ccccc3)nc3ccccc3c2=O)c(O)c([N+](=O)[O-])c1, which Potency is on record?
Answer: The Potency was “inactive”.

Question: CC(C)N1C(=O)CCC1C(=O)NCCc1ccc(Cl)cc1 (centres undefined) was tested. Which Potency did it give?
Answer: Its Potency is “inactive”.

Question: For CCNc1nc(NCC)n2c(SCC(=O)Nc3cccc(Cl)c3)nnc2n1, which Potency is on record?
Answer: The Potency was inconclusive: 89.1 µM [inhibitor, single point].

Question: Cc1ccc(-c2cc(C(F)(F)F)n3nc(-c4cccc(Br)c4)cc3n2)cc1 was tested. Which Potency did it give?
Answer: The Potency was inconclusive: 89.1 µM [inhibitor, single point].

Question: With NC(=O)COC(=O)c1ccc(S(=O)(=O)NCc2ccco2)cc1 as the compound, how does the Potency read?
Answer: The Potency was inconclusive: 89.1 µM [inhibitor, single point].

Question: How did the Potency turn out when COc1cc(/C=C/C(=O)OC[C@H]2O[C@H](OC3(CO)OC(CO)C(O)C3O)[C@H](O)[C@@H](O)[C@@H]2O)ccc1O (some centres undefined) was run?
Answer: The Potency was “inactive”.

Question: For CCc1ccc(NS(=O)(=O)c2ccc3[nH]cc(C(=O)N4CCc5ccccc54)c(=O)c3c2)cc1, which Potency is on record?
Answer: Its Potency is inconclusive: 89.1 µM [inhibitor, partial curve, poor fit].

Question: For Cc1[nH][nH]c(=O)c1C(c1ccc(-c2ccccc2C(=O)O)o1)c1c(C)[nH][nH]c1=O, which Potency is on record?
Answer: Its Potency is inconclusive: 89.1 µM [inhibitor, single point].

Question: How did the Potency turn out when COc1ccc2c(c1)c1c(c(=O)n(-c3ccccc3C)c(=O)n1CC(N)=O)n2C was run?
Answer: Its Potency is “inactive”.

Question: Which Potency does the source give for CCn1c(CC(=O)Nc2ccccc2F)nnc1SCC(=O)NC1CCCCC1 here?
Answer: The Potency was inconclusive: 100 µM [inhibitor, single point].

Question: For COc1ccc(Cn2c(-c3ccco3)nc3oc4cc(OC)ccc4c(=O)c3c2=O)cc1, which Potency is on record?
Answer: Its Potency is inconclusive: 79.4 µM [inhibitor, partial curve, poor fit].

Question: How did the Potency turn out when COc1ccc2oc(=O)c(-c3nnc(NCc4ccco4)s3)cc2c1 was run?
Answer: Its Potency is inconclusive: 89.1 µM [inhibitor, single point].

Question: With N=C(N)c1ccc(/C=C/c2ccc(C(=N)N)cc2O)cc1 as the compound, how does the Potency read?
Answer: The Potency was inconclusive: 56.2 µM [inhibitor, partial curve, poor fit] and inconclusive: 89.1 µM [inhibitor, single point].

Question: How did the Potency turn out when O=C(Nc1ccc(S(=O)(=O)Nc2ncccn2)cc1)C12CC3CC(CC(Cl)(C3)C1)C2 was run?
Answer: The Potency was inconclusive: 89.1 µM [inhibitor, partial curve, poor fit].

Question: For Cc1cc(C)c(S(=O)(=O)NCCSCc2ccco2)c(C)c1, which Potency is on record?
Answer: Its Potency is inconclusive: 56.2 µM [inhibitor, partial curve, poor fit].

Question: How did the Potency turn out when CCc1ccc(OCC(=O)Nc2ccc3oc(=O)ccc3c2)cc1 was run?
Answer: The Potency was “inactive”.

Question: How did the Potency turn out when CCOc1ccc(S(=O)(=O)N2CCCC(C(=O)NCc3cccnc3)C2)cc1 (centres undefined) was run?
Answer: Its Potency is inconclusive: 89.1 µM [inhibitor, partial curve, poor fit].

Question: With CC[C@H]1C(c2ccccc2)=NN(c2ccccc2)[C@@H]1CO as the compound, how does the Potency read?
Answer: The Potency was inconclusive: 63.1 µM [inhibitor, single point].

Question: For O=C1NC(=S)S/C1=C\C=C\c1ccc([N+](=O)[O-])o1, which Potency is on record?
Answer: The Potency was active: 10 µM.

Question: For O=C1c2ccccc2NC(c2cccc(Cl)c2)N1N=C1CCCCCC1 (centres undefined), which Potency is on record?
Answer: The Potency was “inactive”.

Question: For COc1ccccc1C(=O)Nc1cccc(OCc2cc(=O)n3c(C)csc3n2)c1, which Potency is on record?
Answer: Its Potency is inconclusive: 100 µM [inhibitor, single point].

Question: With NS(=O)(=O)c1ccc(CCNC(=O)C2Cc3ccccc3CN2C(=O)c2ccco2)cc1 (centres undefined) as the compound, how does the Potency read?
Answer: The Potency was inconclusive: 100 µM [inhibitor, partial curve, poor fit].

Question: With CCC(C)/C=C/C1=CC2=C(Cl)C(=O)C3(C)OC(=O)C(C(=O)C(C)C(C)O)C3C2=CO1 (centres undefined) as the compound, how does the Potency read?
Answer: The Potency was active: 79.4 µM.

Question: How did the Potency turn out when COc1cc(OC)c2c(-c3cccc(-c4cccc(C)c4)c3)cc(=O)oc2c1 was run?
Answer: Its Potency is inconclusive: 1.58 µM [inhibitor, full curve, poor fit].

Question: For Cc1ccc(NC(=O)c2cc(-c3cccs3)nc3ccccc23)nc1, which Potency is on record?
Answer: Its Potency is “inactive”.

Question: With O=C(Cc1ccc(S(=O)(=O)N2CCOCC2)s1)NCCC(c1ccccc1)c1ccccc1 as the compound, how does the Potency read?
Answer: The Potency was inconclusive: 79.4 µM [inhibitor, single point].

Question: O=C(CCc1ccccc1)NNC(=O)COc1ccc(Br)cc1 was tested. Which Potency did it give?
Answer: Its Potency is inconclusive: 100 µM [inhibitor, single point].

Question: For CC(C)C(NS(=O)(=O)c1ccc2c3c(cccc13)C(=O)N2)C(=O)O (centres undefined), which Potency is on record?
Answer: Its Potency is inconclusive: 79.4 µM [inhibitor, partial curve, poor fit].

Question: How did the Potency turn out when COC1=CC(=Cc2c(N)n3nc(CC(=O)N4CCCCC4)sc3nc2=O)C=C(OC)C1=O was run?
Answer: The Potency was inconclusive: 100 µM [inhibitor, single point].

Question: How did the Potency turn out when CC1=NN(c2ccc(C)c(C)c2)C(=O)/C1=C\C=C\c1ccc([N+](=O)[O-])o1 was run?
Answer: The Potency was active: 50.1 µM.

Question: CCCCCC1=C(C(=O)OC)C(C(=O)OCC)N(S(=O)(=O)C(F)(F)F)c2ccccc21 (centres undefined) was tested. Which Potency did it give?
Answer: The Potency was inconclusive: 39.8 µM [inhibitor, partial curve, poor fit].

Question: Which Potency does the source give for CCOC(=O)c1ccc(NC(=O)CC2Nc3cccc4cccc(c34)NC2=O)cc1 (centres undefined) here?
Answer: The Potency was active: 14.1 µM.

Question: How did the Potency turn out when O=C(O)COn1c(-c2ccccc2)nc2ccc([N+](=O)[O-])cc21 was run?
Answer: Its Potency is inconclusive: 79.4 µM [inhibitor, partial curve].

Question: Which Potency does the source give for O=C(Nc1ccc(Cl)c(Cl)c1)Nc1nnc(-c2ccncc2)s1 here?
Answer: The Potency was inconclusive: 89.1 µM [inhibitor, single point].

Question: How did the Potency turn out when COc1cn(CC(=O)Nc2c(C)cc(C)cc2C)c(CN2CCCCC2)cc1=O was run?
Answer: The Potency was “inactive”.

Question: Which Potency does the source give for CCC1(CC)NC(=O)N(CC(=O)Nc2sc3c(c2C(N)=O)CCC3)C1=O here?
Answer: The Potency was inconclusive: 44.7 µM [inhibitor, full curve, poor fit].

Question: Which Potency does the source give for COc1cc(-c2cc(=O)c3c(O)c(OC)c(OC)c(O)c3o2)ccc1O here?
Answer: The Potency was active: 25.1 µM.

Question: How did the Potency turn out when CCOc1ccc(-n2ccc(=O)c(C(=O)Nc3ccc(S(=O)(=O)Nc4nccs4)cc3)n2)cc1 was run?
Answer: Its Potency is inconclusive: 89.1 µM [inhibitor, single point].

Question: Which Potency does the source give for CCOc1ccc(CCNC(=O)C(CC(C)C)N2Cc3ccccc3C2=O)cc1OCC (centres undefined) here?
Answer: The Potency was inconclusive: 89.1 µM [inhibitor, single point].

Question: Which Potency does the source give for O=C1CCCc2c1oc1c2CCCC1 here?
Answer: The Potency was inconclusive: 89.1 µM [inhibitor, partial curve, poor fit].

Question: How did the Potency turn out when O=C(O)C1Sc2[nH]c(=O)sc2C2c3ccc(O)cc3OC(=O)C12 (centres undefined) was run?
Answer: The Potency was inconclusive: 89.1 µM [inhibitor, single point].

Question: How did the Potency turn out when CC(C)Oc1ccc(CNC(=O)c2cc3cccc4c3n2CC(C)S4)cc1 (centres undefined) was run?
Answer: The Potency was “inactive”.

Question: For O=c1oc2c3c4c(cc2s1)CCCN4CCC3, which Potency is on record?
Answer: Its Potency is inconclusive: 79.4 µM [inhibitor, single point].

Question: Which Potency does the source give for O=C(CN1C(=O)COc2ccc(S(=O)(=O)N3CCOCC3)cc21)NCc1ccc(Cl)cc1 here?
Answer: Its Potency is “inactive”.

Question: CN(CCOc1ccccc1)C(=O)c1cc(-c2ccco2)nc2ccccc12 was tested. Which Potency did it give?
Answer: The Potency was active: 79.4 µM.

Question: Which Potency does the source give for CCN(CC)c1ccc(-c2sc(Nc3ccccc3)n[n+]2-c2ccc(F)cc2)cc1 here?
Answer: Its Potency is “inactive”.

Question: Cc1cc2c(cc1C)-c1c(ssc1=Nc1ccc(S(N)(=O)=O)cc1)C(C)(C)N2 was tested. Which Potency did it give?
Answer: The Potency was inconclusive: 89.1 µM [inhibitor, single point].

Question: How did the Potency turn out when CC(C)Cn1cc(NC(=O)NCc2ccc(Cl)cc2)c2ccccc2c1=O was run?
Answer: Its Potency is “inactive”.

Question: How did the Potency turn out when O=C(O)c1cccc(N2C(=O)c3cc([N+](=O)[O-])cc4cc([N+](=O)[O-])cc(c34)C2=O)c1 was run?
Answer: Its Potency is active: 22.4 µM.

Question: Which Potency does the source give for CCNc1ccc(Br)cc(C(=O)/C=C/c2ccc(Cl)cc2Cl)c1=O here?
Answer: Its Potency is inconclusive: 89.1 µM [inhibitor, single point].

Question: O=C(O)Cc1nn(Cc2ccc(Br)cc2F)c(=O)c2ccccc12 was tested. Which activity, negative = inhibition did it give?
Answer: Its activity, negative = inhibition is inactive: 2.11% [at 19.4 µM].
